Data taken from US20230050440A1 (Seagen, published 2023).

Biological target: T1, human high affinity FcγRIIIa V/V receptor expressed on CHO cells (human, UniProt P08637)
T1 construct: whole, on cells
Test: flow cytometry on CHO cells transfected with human FcγRIIIa 158V (CHO/hCD16), fluorescent anti-human Fc secondary antibody

T1 sequence (P08637 17-254 F176V): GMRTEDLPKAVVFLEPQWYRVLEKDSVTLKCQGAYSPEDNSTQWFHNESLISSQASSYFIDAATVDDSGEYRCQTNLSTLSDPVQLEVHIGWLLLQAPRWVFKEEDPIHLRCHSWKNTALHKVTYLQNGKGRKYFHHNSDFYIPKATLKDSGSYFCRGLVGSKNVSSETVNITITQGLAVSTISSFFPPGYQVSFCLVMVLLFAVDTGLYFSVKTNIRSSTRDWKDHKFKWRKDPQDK

B1: clone 13 IgG1 DLE (antibody)
heavy: QVQLVQSGAEVKKPGSSVKVSCKASGGTFSSYAISWVRQAPGQGLEWMGSIIPIFGTANYAQKFQGRVTITADESTSTAYMELSSLRSEDTAVYYCARGPSEVGAILGYVWFDPWGQGTLVTVSSASTKGPSVFPLAPSSKSTSGGTAALGCLVKDYFPEPVTVSWNSGALTSGVHTFPAVLQSSGLYSLSSVVTVPSSSLGTQTYICNVNHKPSNTKVDKKVEPKSCDKTHTCPPCPAPELLGGPDVFLFPPKPKDTLMISRTPEVTCVVVDVSHEDPEVKFNWYVDGVEVHNAKTKPREEQYNSTYRVVSVLTVLHQDWLNGKEYKCKVSNKALPLPEEKTISKAKGQPREPQVYTLPPSRDELTKNQVSLTCLVKGFYPSDIAVEWESNGQPENNYKTTPPVLDSDGSFFLYSKLTVDKSRWQQGNVFSCSVMHEALHNHYTQKSLSLSPGK
light: not shown
notes: also called Clone 13 DLE
EC50 (read off the curve): ~0.8 µg/mL
